PubChem BioAssay AID743279 (National Center for Advancing Translational Sciences (NCATS), 2014)
Out of some 360,000 compounds screened, about 17,000 (4.7%) were called active. Inconclusive means that the source gave no clear call. Such entries were picked first, then a sample of the others. No stated cut-off is given here; in the data, active means activity change below about -50%; inconclusive means mostly about -30% to -49%; inactive means weaker than that.

Experiment: qHTS for Inhibitors of Inflammasome Signaling: IL-1-beta AlphaLISA Primary Screen
Conditions: THP-1 LPS/ATP IL-1B secretion, 16 h; at 57.5 µM, stronger effect = lower value
Outline: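 Secreted IL-1B measured by AlphaLISA bead assay after 16 h compound exposure of THP-1 cells; compounds (final up to 57.5 uM) added 1 h before LPS (250 ng/mL) and ATP (1.25 mM) stimulation; lower signal means less secretion.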
On the % scale 0 is the no-effect control and ±100 the full control effect.

| Structure (SMILES) | activity change |
| --- | --- |
| CN(Cc1cn(Cc2ccc(Cl)cc2)nn1)C1CN(Cc2cn(Cc3ccc(Cl)cc3)nn2)S(=O)(=O)C1 (configuration not stated) | inconclusive: -41.3% |
| COc1cccc(CNCC(O)(c2ccc(Cl)cc2)c2ccc(Cl)cc2)c1 | active: -57.1% |
| CCCCc1ccc(NC(=O)CN2C(=O)C3CCCCC3C2=O)cc1 (configuration not stated) | active: -75.9% |
| O=C(CCN1CCCCC1)Nc1cccc(Br)c1 | inconclusive: -37.8% |
| CCN(CC)c1nc(-c2ccccc2)nc2ccccc12 | inconclusive: -40.1% |
| CN(C)S(=O)(=O)c1cccc(NC(=O)c2cccc(NS(=O)(=O)c3ccccc3)c2)c1 | active: -60.5% |
| N#Cc1c(-c2ccccc2)ccn(Cc2ccc(Cl)cc2)c1=O | inactive: -5.38% |
| OCCOCCNc1ncnc2nc[nH]c12 | inactive: -25.7% |
| Cc1cc(C2C(C#N)=C(N)Oc3n[nH]c(C)c32)c(C)s1 (configuration not stated) | inconclusive: -44.8% |
| CCOC(=O)C1=C(CC)Nc2ccccc2N=C1NC(=O)c1cc(S(=O)(=O)N2CCOCC2)ccc1C | inconclusive: -31.4% |
| CCN1CCN(c2ccc(S(=O)(=O)N3CCCCC3)cc2NC(=O)c2cccc(OC(F)F)c2)CC1 | inconclusive: -38.5% |
| COC(=O)[C@]12CCCCC=C1N(CCc1ccc(OC)c(OC)c1)C(=O)[C@H](CC(=O)N1CCCC1)C2 | inconclusive: -30.2% |
| COc1cc(OC)cc(-c2noc(-c3csc([C@@H]4C[C@H](O)[C@@H](CO)O4)n3)n2)c1 | inconclusive: -40.8% |
| COCCNC(=S)N1CCN(C/C=C/c2ccccc2)CC1 | inactive: 0% |
| CN(C)CCN(Cc1ccco1)C(=O)c1oc2ccccc2c1NC(=O)COc1ccccc1 | active: -50.4% |
| CCc1ccc(NC(=O)c2cnn(-c3ccccc3)c2C2CCNCC2)cc1 | inactive: 0.594% |
| Cc1ccc(C(=O)CC(Nc2ccc(F)cc2)c2ccccc2)cc1 (configuration not stated) | inconclusive: -42.3% |
| CCOC(=O)c1ccc(NC(=O)COc2ccc(CNC3CCCCC3)cc2OC)cc1 | inconclusive: -41.3% |
| O=C(O)c1cccc(NC(=O)c2cccc(S(=O)(=O)N3CCCCC3)c2)c1 | inactive: -1.19% |
| COc1ccccc1/C=C/C(=O)c1ccc(Cl)cc1 | active: -56.1% |
| C/C(=N/NC(=O)c1ccc(-c2ccccc2)cc1)c1cc(O)cc(O)c1 | inconclusive: -46.2% |
| COc1ccc(C(=O)NC(=S)N2CCN(c3ccc([N+](=O)[O-])cc3)CC2)cc1 | inconclusive: -42.1% |

| Structure (SMILES) | activity change |
| --- | --- |
| COC(=O)c1ccc(C(=O)NC2CCCc3c2cnn3-c2ccccc2F)nc1 (configuration not stated) | inactive: 74.6% |
| Cc1ccc(C)c(Nc2c([N+](=O)[O-])c(=O)oc3ccccc23)c1 | active: -58.2% |
| CCCCn1cnc2c(SCc3ccc(Br)cc3)nc(N)nc21 | active: -83.9% |
| C=CCNC1=C(Cl)C(=O)N(Cc2ccccc2)C1=O | inconclusive: -33.4% |
| COc1ccc(-n2nnnc2C(c2ccnc3ccccc23)N2CCN(C/C=C/c3ccccc3)CC2)cc1 (configuration not stated) | inconclusive: -45.8% |
| N#CCCN(C(=O)COC(=O)C1CCN(c2ccc(C(F)(F)F)cn2)CC1)c1ccc(F)cc1 | inconclusive: -34.6% |
| CCn1cnc2cc(NCc3cccs3)ccc21 | inactive: -2.3% |
| Cc1cccc(NS(=O)(=O)c2ccc(-n3cccn3)cc2)c1C | inactive: -6.71% |
| CN(C)CC/C=C1\c2ccccc2CSc2ccccc21 | inconclusive: -43.1% |
| COc1ccc(NC(=O)C2CCN(c3nc(C)nc4c3CCC4)CC2)cc1 | inconclusive: -35.8% |
| Cc1cc(-c2nnc3n2CCCCC3)c(C)n1-c1ccccc1 | inconclusive: -30.5% |
| O=C(Nc1nonc1NC(=O)C1CCCCC1)C1CCCCC1 | inactive: 44.7% |
| O=C(Nc1ccc(-c2nc3ncccc3o2)cc1)c1ccco1 | inconclusive: -37.4% |
| COc1ccccc1CNC(=O)C1CCCN(S(=O)(=O)c2cccc3cccnc23)C1 (configuration not stated) | inconclusive: -41.2% |
| COC(=O)C1=C(C)NC(=O)/C1=C\c1cc(C)n(-c2ccc(F)cc2)c1C | inconclusive: -44.3% |
| CCc1nc(N2CCN(C(=S)NCCCOC)CC2)c2c3c(sc2n1)CCCC3 | inconclusive: -44% |
| COCn1ccnc1C(=O)c1ccco1 | inconclusive: -41.7% |
| Cn1c(SCc2ccc(Br)cc2)nc2ccccc2c1=O | inactive: -1% |
| O=C(NN=Cc1c(O)ccc2ccccc12)C1CC1 | inactive: 121% |
| CCOC(=O)C1CCCc2c1[nH]c1ccc(Cl)cc21 (configuration not stated) | inconclusive: -40% |
| COc1cc(/C=N/n2c(-c3ccc4c(c3)NC(=O)CO4)csc2=Nc2cccc(C)c2)ccc1O | inconclusive: -30.3% |
| COc1ccc(N(CC(=O)N/N=C(\C)CCc2ccccc2)S(=O)(=O)c2ccc(C)cc2)cc1 | inactive: -19% |

| Structure (SMILES) | activity change |
| --- | --- |
| CC(C)c1ccc(C2=C(O)c3ccccc3C(=O)C2=O)cc1 | inconclusive: -33.4% |
| Cc1ccc(N2C(=O)NC(NC(=O)c3ccc(Cl)cc3)(C(F)(F)F)C2=O)cc1 (configuration not stated) | inactive: 2.36% |
| O=C(c1ccccc1)c1cc(Cl)ccc1N1C(=O)C=CC1=O | active: -80.5% |
| COc1ccc(-c2nc(SC)n(C)c(=O)c2C#N)cc1OC | active: -76.3% |
| C[C@H]1CN([C@@H](C)CO)C(=O)CCCn2nncc2CO[C@@H]1CN(C)C(=O)c1ccc2ccn(C)c2c1 | inactive: -22.2% |
| C=CC[n+]1c(-c2ccc(Cl)cc2Cl)csc1Nc1ccc(NC(C)=O)cc1 | active: -80.2% |
| CCC1CCCCN1CCCNC(=O)C(C)n1nc(C)c2sc3ccccc3c2c1=O (configuration not stated) | inconclusive: -30.4% |
| O=C(NCc1cccnc1)/C(=C/c1ccc(-c2ccc(Cl)cc2)o1)S(=O)(=O)c1ccccc1 | active: -106% |
| Cc1nnc(N/N=C/c2ccccc2O)n1N | inactive: -0.0488% |
| Cc1ccccc1C1CC(c2cccs2)Nc2nnnn21 (configuration not stated) | inconclusive: -32.5% |
| CCCc1nnc(NC(=O)Cn2c(=O)oc3cc(Br)ccc32)s1 | inconclusive: -46.6% |
| C#CCOCCOCCOCCNc1nc(N2CCN(C(=O)C([C@@H](C)O)n3cc([C@@H](N)CCCCN)nn3)CC2)nc(N2CCN(C(=O)[C@H](CCCN=C(N)N)n3cc(C(N)[C@@H](C)CC)nn3)CC2)n1 (some centres not stated) | inactive: 10.7% |
| CC1(C)Cc2c(sc3nc(SCC(=O)NCc4ccco4)n(-c4ccccc4)c(=O)c23)CS1 | inactive: 9.33% |
| CCOC(=O)c1c(C)oc2ccc(O)c(CN3CCCCC3)c12 | active: -69.4% |
| CCCN(CC1CC1)C(=S)NC(=O)c1cc(Br)ccc1Cl | inactive: 30.7% |
| Cc1ccc(CNCc2cccnc2)cc1 | inactive: 19.9% |
| CCCCN(Cc1ccccc1)S(=O)(=O)c1c(N)n(C)c(=O)n(C)c1=O | inactive: 6.6% |
| Cc1cccc(NC(=O)CSc2nnc(CNC(=O)c3ccc(S(=O)(=O)N(C)C)cc3)n2-c2cccc(C)c2)c1 | inactive: -4.41% |
| O=C(CCc1ccccc1)N1CCN(Cc2ccc(F)cc2Cl)CC1 | inconclusive: -32.4% |
| Cc1cc(F)ccc1S(=O)(=O)Nc1nc2ccccc2nc1Cl | active: -50.6% |
| Cc1ccc(NC(=O)COc2ccccc2C#N)cc1S(=O)(=O)N1CCCCCC1 | inactive: -1.99% |
| CC(C)c1ccc(C2NC(=S)NC3=C2C(=O)CC(C)(C)C3)cc1 (configuration not stated) | inactive: 0% |

| Structure (SMILES) | activity change |
| --- | --- |
| O=C(Nc1cccc(-c2nnco2)c1)c1cccs1 | inactive: -19.1% |
| CC(N)c1csc(NC(=O)Nc2cccc(C(F)(F)F)c2)n1 (configuration not stated) | active: -102% |
| COc1ccc(NC(=O)COc2ccc(C)c(C)c2)cc1S(=O)(=O)N1CCCCC1 | inconclusive: -48.9% |
| O=C(N/N=C\c1ccc(Sc2ccccn2)o1)c1cccc(Br)c1 | inconclusive: -37.2% |
| Cc1ccc(C(=O)N/C(=C\c2ccccc2)C(=O)OCc2ccccc2)cc1 | active: -50.7% |
| C=CCn1c(N)c(C(=O)OC(C)CC)c2nc3ccccc3nc21 (configuration not stated) | inconclusive: -38.6% |
| CC(C)(O)c1ccc2c(c1)CCC1C(C)(C(=O)O)CCCC21C (configuration not stated) | inactive: 12.3% |
| COc1ccc(OCC(=O)N2CCC(Cc3ccccc3)CC2)cc1 | inconclusive: -30.8% |
| CC(C)C[C@H]1CN([C@@H](CC(C)C)CN2CCC[C@@H]2CN2C(=S)NC[C@@H]2Cc2ccc(O)cc2)C(=S)N1CCc1ccccc1 | inconclusive: -31.5% |
| COc1cccc(NC(=O)C2CCN(S(=O)(=O)c3ccc4c(c3)C(C)(C)C(=O)N4C)CC2)c1 | inactive: 17% |
| CCCc1cc(=O)oc2cc(C)cc(OCC(=O)Nc3cccnc3)c12 | inconclusive: -36% |
| CC(/C=N/NC(=O)NC1CCCCC1)=C\c1ccccc1 | inconclusive: -43.3% |
| O=C(CNC(=O)c1ccccc1C(F)(F)F)N/N=C/c1cccs1 | inactive: 0.57% |
| O=C(Nc1cccc([N+](=O)[O-])c1)Nc1cccs1 | inconclusive: -39.3% |
| O=C(/C=C/NCc1ccc(F)cc1)c1ccccc1 | inconclusive: -42.3% |
| CCCCCC(=O)N1C[C@@H](O)[C@H](n2cc(C3CC3)nn2)C[C@@H]1c1ccccc1 | inactive: 45.5% |
| O=C1CCCN2N=C(SCC(=O)Nc3ccc(OC(F)(F)F)cc3)SC2=N1 | inactive: 44.6% |
| CCOC(=O)c1cc(-c2ccc(N3CCOCC3)cc2)nn1-c1ccc(F)cc1F | inconclusive: -45.3% |
| Cc1ccc(Nc2nc(CSc3nnc(-c4ccccc4C)n3C)cs2)cc1 | inconclusive: -30.3% |
| O=C(c1cccs1)c1cn(CC(=O)N2CCc3ccccc3C2)c2ccccc12 | inactive: -9.18% |
| O=[N+]([O-])c1ccccc1/C=C/c1ccc2ccccc2n1 | active: -78.9% |
